Over roughly 110,000 compounds, “z-score” has its median near -0.1; the highest 2% begin near 2. This is one part of the list.

The target in the experiment is Metabotropic glutamate receptor 8 (Rattus norvegicus) (UniProt P70579). The experiment can be described thus: mGluR8 Gi/Go-coupled signaling modulation – cell-based, rat, thallium flux, HTS, primary screen (AID 488969). As to conditions: HEK293 rat mGluR8, GIRK (G protein-gated inwardly rectifying potassium channel) thallium flux, FluoZin2; at 10 µM; stronger effect = higher value; submaximal glutamate (EC20) added with thallium.
Sequence of UniProt P70579 (P70579 whole entry, looked up): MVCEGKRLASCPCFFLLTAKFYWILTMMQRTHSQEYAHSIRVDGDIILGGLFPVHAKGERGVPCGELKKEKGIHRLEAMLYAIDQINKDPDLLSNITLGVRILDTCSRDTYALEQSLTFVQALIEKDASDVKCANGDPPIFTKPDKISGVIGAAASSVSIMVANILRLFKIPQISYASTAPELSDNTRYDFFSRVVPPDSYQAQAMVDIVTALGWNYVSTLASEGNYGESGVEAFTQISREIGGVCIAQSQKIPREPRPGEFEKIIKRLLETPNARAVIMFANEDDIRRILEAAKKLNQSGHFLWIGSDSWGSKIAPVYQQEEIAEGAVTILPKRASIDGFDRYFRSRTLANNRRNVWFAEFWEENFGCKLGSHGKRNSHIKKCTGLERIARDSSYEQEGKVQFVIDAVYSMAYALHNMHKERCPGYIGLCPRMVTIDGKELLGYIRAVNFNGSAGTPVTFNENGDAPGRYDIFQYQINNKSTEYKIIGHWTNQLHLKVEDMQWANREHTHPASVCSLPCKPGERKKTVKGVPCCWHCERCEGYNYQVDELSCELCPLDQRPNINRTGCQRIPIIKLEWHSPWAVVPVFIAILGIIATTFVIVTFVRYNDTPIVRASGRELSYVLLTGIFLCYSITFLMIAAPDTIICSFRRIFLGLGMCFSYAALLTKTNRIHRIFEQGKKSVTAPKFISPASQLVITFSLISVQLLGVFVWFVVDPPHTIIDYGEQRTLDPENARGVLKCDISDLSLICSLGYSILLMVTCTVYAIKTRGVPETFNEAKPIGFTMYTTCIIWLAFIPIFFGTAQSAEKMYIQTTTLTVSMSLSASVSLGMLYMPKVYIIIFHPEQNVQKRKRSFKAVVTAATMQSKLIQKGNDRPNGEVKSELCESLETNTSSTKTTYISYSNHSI
`Cc1ccc2c(Cl)c(C)c(N3CCCC3)nc2n1` registered a z-score of -0.464.
In turn, `N#Cc1ccsc1NC(=O)CSc1nnc(-c2ccccc2)o1` yielded a z-score of 0.151.
In the case of `O=C(CSc1nc2cccnc2n1Cc1ccccc1)NC1CCCCC1` it was -0.637; in that of `CCCC(=O)Nc1ccc(C(=O)NNC(=O)c2cccs2)cc1`, -0.0751.
In the case of `Cn1c(SCC(=O)NNC(=O)Cc2ccccc2)nnc1-c1ccc(Cl)cc1` it was -0.126; in that of `CCCCNS(=O)(=O)c1ccc(NS(=O)(=O)c2c(C)cc(C)cc2C)cc1`, 1.12.
In the case of `Cc1noc2ncnc(Sc3c(Cl)cccc3Cl)c12` it was -0.112.
`COc1cc(OC)c(C2=NOC(C(=O)O)C2)cc1Cl` (configuration not stated) had a z-score of 0.212.
In the case of `CC(=O)Nc1ccc(N2CCc3c(C)c(C#N)c4nc5ccccc5n4c32)cc1` it was -0.214; in that of `COC(=O)c1c(C)oc2cc(Br)c(OCC(=O)C(C)(C)C)cc12`, 0.0323; in that of `COC(=O)C(CCSC)NC(=O)C(NC(=O)C1CCC(C)CC1)C(C)C` (configuration not stated), -0.317.
The result for `C=CCn1c(SCC(=O)Nc2ccc3c(c2)OCO3)nc2ccccc2c1=O` reads 0.212; that for `CCc1c(C(=O)NC2CCCC2)csc1C`, -0.231; that for `CCCS(=O)(=O)N1CCCC(C(=O)NCCCN2CCN(c3cccc(Cl)c3)CC2)C1` (configuration not stated), -0.412.
Molecule `COC(=O)c1cc2ccccc2c(-c2c(OC)c(C(=O)OC)cc3ccccc23)c1OC` returned a z-score of -0.118.
In the case of `Nc1ccc(C2CCCc3nonc32)c2nonc12` (configuration not stated) it was -0.157; in that of `COCCOc1cc(N2C(=O)CSCC2=O)c(Cl)cc1Cl`, 0.736.
The result for `CC(=O)c1c(C(C)=O)c(C)n(Cc2ccc(Cl)cc2)c1C` reads -0.326.
Molecule `CCOC(=O)C1=C(C)NC(=O)NC1c1ccc(NC(C)=O)cc1` (configuration not stated) had a z-score of -0.184.
In the case of `CCN(CC(=O)Nc1c(C(=O)OC)[nH]c2ccccc12)c1ccc2c(c1)OCO2` it was -0.682; in that of `CCN(CC)C(=O)CSc1nc(N)c(C#N)c(-c2cccs2)c1C#N`, 0.0946.
In the case of `Cc1ccc(/C=N/NC(=O)Cc2c[nH]c3ccccc23)c(C)c1` it was -0.215; in that of `Cc1ccc(CCN2CC(C(=O)O)CC2=O)cc1` (configuration not stated), -0.0312.
In the case of `CN(Cc1ccccc1)c1ccc(N2C(=O)CCCC2=O)cc1[N+](=O)[O-]` it was -0.202; in that of `CCOc1ccc(OCc2ccc(C(=O)Nc3ccc(Cl)cn3)o2)cc1`, 0.0535; in that of `NS(=O)(=O)c1ccc(Nc2ncccc2[N+](=O)[O-])cc1`, 0.143.
`CC(C)(O)C#Cc1ccc(C(=O)N2CCCC2C(=O)O)s1` (configuration not stated) displayed a z-score of 0.737.
Turning to `CN(CCOC(=O)c1ccco1)Cc1ccccc1`, the z-score was -0.11.
The result for `O=C(Nc1ccc(F)cc1)c1ccc(S(=O)(=O)NCC2CCCO2)cc1` (configuration not stated) reads 0.804; that for `CCOc1ccc(-n2nc3c(=O)[nH]nc(C)c3c2C)cc1`, -0.125; that for `Cn1cccc1/C=C1\SC(=O)N(c2ccc(O)cc2)C1=O`, -0.282.
In the case of `CSc1ccc(Cl)c(C(=O)NC2CCCC2)c1` it was -0.0722.
